Results published in article PMC4336329 (PLoS ONE, 2015).
The campaign covered roughly 310,000 compounds. About 2,200 (0.71%) showed an effect of 50% or more. Effects have a minus sign here. This is one part of the list. Where a SMILES comes first, the peptide text is derived from it. The star is where a group is joined. Boc = CC(C)(C)OC(=O)*

molecular target: human ether-à-go-go-related gene (hERG) potassium channel (human, UniProt Q12809); assay: primary screen, population patch clamp on CHO cells stably expressing hERG
Sequence (Q12809 whole entry, looked up): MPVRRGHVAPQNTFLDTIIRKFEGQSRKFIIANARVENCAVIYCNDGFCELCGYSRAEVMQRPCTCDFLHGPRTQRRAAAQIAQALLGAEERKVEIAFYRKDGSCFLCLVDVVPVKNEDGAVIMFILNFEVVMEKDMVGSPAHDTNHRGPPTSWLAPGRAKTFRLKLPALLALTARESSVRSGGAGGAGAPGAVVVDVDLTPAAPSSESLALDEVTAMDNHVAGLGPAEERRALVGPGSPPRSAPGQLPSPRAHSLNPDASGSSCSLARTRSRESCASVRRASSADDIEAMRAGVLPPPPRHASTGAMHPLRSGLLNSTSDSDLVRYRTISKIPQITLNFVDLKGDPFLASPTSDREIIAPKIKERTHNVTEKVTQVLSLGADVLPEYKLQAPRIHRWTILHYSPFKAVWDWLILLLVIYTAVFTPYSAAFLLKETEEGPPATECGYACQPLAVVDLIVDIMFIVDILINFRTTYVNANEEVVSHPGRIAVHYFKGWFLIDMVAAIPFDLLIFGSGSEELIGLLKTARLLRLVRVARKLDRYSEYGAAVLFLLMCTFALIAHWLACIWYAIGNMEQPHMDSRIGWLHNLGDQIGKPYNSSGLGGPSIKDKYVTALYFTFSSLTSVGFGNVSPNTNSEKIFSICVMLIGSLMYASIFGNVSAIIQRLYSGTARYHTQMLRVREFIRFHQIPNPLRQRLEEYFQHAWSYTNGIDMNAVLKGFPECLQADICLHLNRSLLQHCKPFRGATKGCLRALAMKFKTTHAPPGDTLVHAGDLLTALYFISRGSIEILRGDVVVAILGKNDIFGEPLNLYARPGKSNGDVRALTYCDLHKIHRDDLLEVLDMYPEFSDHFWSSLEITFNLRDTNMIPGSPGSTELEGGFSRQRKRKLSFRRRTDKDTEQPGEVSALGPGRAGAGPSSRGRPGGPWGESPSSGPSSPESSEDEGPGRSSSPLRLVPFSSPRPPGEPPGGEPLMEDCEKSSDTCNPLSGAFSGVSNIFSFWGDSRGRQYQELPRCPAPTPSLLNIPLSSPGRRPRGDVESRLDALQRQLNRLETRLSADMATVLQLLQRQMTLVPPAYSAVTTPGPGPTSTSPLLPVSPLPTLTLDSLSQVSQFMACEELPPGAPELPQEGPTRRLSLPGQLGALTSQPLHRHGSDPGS

SMILES | hERG current change (%, negative = inhibition) at 1uM
C=CCn1c(SCc2cccc(C#N)c2)nnc1-c1ccccc1O | -6.97%
CN(CC(=O)NC1CC(C)(C)NC(C)(C)C1)S(=O)(=O)c1cc(Cl)ccc1Cl | 7%
O=C(NCc1ccccc1F)C(=O)NCC1CCCN1S(=O)(=O)c1ccccc1 (stereo not drawn) | 0.406%
CC1CN(CC(O)COCc2ccc3c(c2)OCO3)CC(C)O1.Cl (stereo not drawn) | 0.791%
Cc1cc(/C(N)=N/OC(=O)Nc2ccc(Cl)cc2)no1 | 10.7%
CC(C)Oc1ccc(CNC(=O)c2ccc3nc(N4CCOCC4)sc3c2)cc1 | 7.18%
CCOCN(C(=O)Cn1c(CO)nc2ccccc21)c1c(C)cccc1CC | 7.43%
CCOC(=O)/C(C#N)=C(/C)c1ccc(OC)cc1 | 3.37%
CC(=O)NNC(=O)c1ccncc1 | 3.03%
CC(CN1CCCCC1)C(=O)NN (stereo not drawn) | 25.4%
CCCC/C([O-])=N\S(=O)(=O)c1ccc(N=NN(C)C)cc1.[K+] | 3.2%
Cc1ccccc1N1C(=O)CC(N2CCC(C(N)=O)CC2)C1=O (stereo not drawn) | 5.5%
COc1ccc(OC)c(S(=O)(=O)Nc2ccc3oc4c(c3c2)C(=O)CCC4)c1 | -4.31%
Cc1ccc(C(=O)CSc2nsc(C)c2C#N)cc1 | 2.63%
Cn1ncc(Br)c1C(=O)Nc1ccc(Br)cn1 | 16.3%
COc1ccc(OCC(=O)Nc2nnc(-c3ccco3)s2)cc1 | 12.6%
Cc1cc(C)cc(NC(=O)CSc2nc(=O)n(CCCN3CCOCC3)c3c2CCCC3)c1 | -7.23%
O=C(O)c1ccc(-c2nc3scc(-c4ccccc4)c3c(=O)[nH]2)cc1 | 0.113%
O=C(CNCc1ccccc1)Nc1ccc(Oc2ccccc2)cc1 | 5.29%
Cc1cc(C)cc(C(=O)NC(=S)Nc2ccc(Cc3ccncc3)cc2)c1 | 6.73%
Cc1onc(-c2ccccc2)c1C(=O)Nc1nc2c(s1)C(=O)CC(C)(C)C2 | 13.3%
O=C(N/N=C\c1ccc2c(c1)OCO2)c1ccc(Cn2cc(Br)c([N+](=O)[O-])n2)o1 | 3.84%
CCOc1ccc2nc(SCC(=O)NCC3CCCO3)c(C#N)cc2c1 (stereo not drawn) | -0.201%

SMILES | hERG current change (%, negative = inhibition) at 1uM
N#CC(C(=S)Nc1ccccc1)c1nc2ccccc2[nH]1 (stereo not drawn) | 10.8%
N/C(=N\c1nc2ccccc2o1)NC(=O)C(Cc1ccccc1)N1C(=O)c2ccccc2C1=O (stereo not drawn) | 16%
Cc1ccc(/C=C/C(=O)N2CCN(S(=O)(=O)/C=C/c3ccccc3)CC2)o1 | -0.528%
Cc1cccc2sc(N(CCCN(C)C)C(=O)c3ccco3)nc12.Cl | -54.8%
Cn1c(N2CCN(C(=O)Nc3ccc(C(F)(F)F)cc3)CC2)nc2ccccc21 | -7.21%
COc1ccc2c(c1OC)CN1CCc3cc4c(cc3C1C2)OCO4 (stereo not drawn) | 17.1%
Cc1c(C(=O)Nc2ccc(F)cc2)oc2ccc(S(=O)(=O)N3CC(C)CC(C)C3)cc12 (stereo not drawn) | 15.1%
CCc1ccc(NC(=O)COc2ccc(/C=C(/C#N)c3nc4ccccc4[nH]3)cc2OC)cc1 | 8.14%
CCOc1cc(CN2CCCC(CO)(Cc3ccc(F)cc3F)C2)ccc1OC (stereo not drawn) | -10.8%
O=C(Nc1ccccc1C(=O)N1CCN(c2ccccc2)CC1)c1ccco1 | -1.01%
CC(C)=N/N=C1/NC(=O)C(Cc2ccccc2)S1 (stereo not drawn) | 19.7%
Cc1ccc(-n2nnnc2SC(C)C(=O)NCC(=O)Nc2ccc(F)c(F)c2F)c(C)c1 (stereo not drawn) | 9.56%
O=C(CN(Cc1ccc2c(c1)OCO2)C(=O)c1cnsn1)NC1CCCC1 | 7.58%
Cc1ccc(CSCCC(=O)NCCC2=CCCCC2)cc1 | 9.65%
CCCCNC(=O)C1c2ccccc2Oc2ccccc21 | 9.99%
CCOC(=O)c1c(CN(C)C)n(-c2ccc(C)cc2)c2cc(Br)c(O)cc12 | -7.43%
CSc1ccccc1C(=O)Nc1ncn[nH]1 | 14.9%
COc1ccc(CCN2CC34C=CC(O3)C(C(=O)NCc3ccccc3Cl)C4C2=O)cc1OC (stereo not drawn) | 9.83%
Cc1ccc(SCC(=O)NC(C)(C)C)cc1 | -12.8%
C=CCn1c(SCC(=O)NCCc2ccccc2)nnc1C1CC1 | -4.46%
COc1ccc(NC(=O)Cn2nnc(C(=O)NCc3ccc4c(c3)OCO4)c2N)c(OC)c1 | 19.7%
COc1ccc(OCCCC(=O)Nc2ncn[nH]2)cc1 | 7.46%
COc1ccc2c(c1OC)C(=O)OC2Nc1ncc(Br)cc1Br (stereo not drawn) | 7.93%

SMILES | hERG current change (%, negative = inhibition) at 1uM
O=C(COc1ccccc1)Nc1cccc2nsnc12 | -22%
Cc1cc(OC(C)C(=O)NCC2CCCO2)cc(C)c1Cl (stereo not drawn) | 12%
COCCCN(C(=S)Nc1cc(Cl)cc(Cl)c1)C(C)c1ccccn1 (stereo not drawn) | -5.66%
S=C(c1ccc(-c2ccc(Cl)cc2)o1)N1CCCCC1 | 10.7%
Cc1cnn(C(=S)NCC2CCCO2)c1 (stereo not drawn) | 11.9%
N#Cc1ccc(N2CCOCC2)nc1 | 1.37%
COC(=O)c1ccc(NC(=O)C(=O)N2CCN(C(=S)Nc3cccc(OC)c3)CC2)cc1 | 7.75%
COc1ccc(/C=C(/NC(=O)/C=C/c2ccccc2)C(=O)O)cc1 | 18.6%
C=CCn1nnnc1SCC(=O)Nc1ccc(OC)cc1 | 10.9%
CCn1c2ccccc2c2cc(NC(=O)c3cccc(OC)c3OC)ccc21 | -5.03%
COc1ccc(NC(=O)CSc2nc(C)cs2)cc1 | 6.79%
COc1cccc(CN2CCC(C(=O)N3CCN(Cc4ccc5c(c4)OCO5)CC3)CC2)c1OC | -3.63%
CC(C)CC(NC(=O)OC(C)(C)C)C(=O)NC(C(=O)NC(C)C(N)=O)C(C)C (stereo not drawn) (Boc-Leu-Val-Ala-NH2; configuration not given here) | -2.73%
Cc1cccc(NC(=S)NN2CCN(C)CC2)c1 | -7.96%
CS(=O)(=O)C1=NSC2=NC(=O)/C(=C\c3cccn3-c3ccc(Cl)cc3)C(=N)N21 | 11.5%
CC(C)(C)C(=O)CN1C(=O)NC2(CCc3ccccc32)C1=O (stereo not drawn) | 4.7%
CCOC(=O)c1ccsc1NC(=O)c1ccco1 | 12.3%
CN(CCOc1ccccc1)S(=O)(=O)c1ccc2oc3ccccc3c2c1 | 10.1%
CCC(=O)Nc1cccc(-n2nnnc2SCC(=O)N(C(C)C)C(C)C)c1 | -4.63%
Cc1cccc(NC(=O)Nc2ccccn2)c1C | 3.33%
N#CC1=C(SCC(=O)Nc2ccccc2)NC(=O)CC1c1ccco1 (stereo not drawn) | 8.13%
O=C(NNC(=O)C12CC3CC(CC(C3)C1)C2)c1cnccn1 | 7.92%
NS(=O)(=O)c1cc2c(cc1Cl)NC(C1CC3C=CC1C3)NS2(=O)=O (stereo not drawn) | 15.4%

SMILES | hERG current change (%, negative = inhibition) at 1uM
Cc1cc(NS(=O)(=O)c2ccc(NC(=O)c3ccc([N+](=O)[O-])c(Cl)c3)cc2)no1 | 12.4%
COc1ccc(NC(=O)C2Cc3ccccc3O/C2=N\O)cc1 (stereo not drawn) | 11.2%
CCCCc1nc2cc(C(=O)N3CCCC3)ccc2o1 | 7.18%
Cc1ccc(C(=O)NNC2=Nc3cc([N+](=O)[O-])ccc3OC2)cc1 | 11.8%
O=C(CCCOc1ccccc1)Nc1cccc(C(=O)O)c1 | 8.12%
COC(=O)CSc1nccc(C)n1 | 8.39%
Cc1cccc(CN2CCN(C(=S)Nc3ccccc3)CC2)c1 | 8.54%
O=C(C1CCN(S(=O)(=O)c2cccc3cccnc23)CC1)N1CC=C(c2ccccc2)CC1 | -1.02%
CC(C)N(CC#CCC1(O)c2ccccc2-c2ccccc21)C(C)C.Cl | -12.4%
COc1cc(/C=C(\NC(=O)c2cc(OC)c(OC)c(OC)c2)C(=O)NC(C(=O)O)c2ccccc2)cc(OC)c1OC (stereo not drawn) | 12.8%
N#Cc1ccc(S(=O)(=O)N2CCN(C(=O)[C@@H]3CCCN3C(=O)c3cccs3)CC2)cc1 | -5.03%
CCOc1ccc(NC(=O)CN(C)C(=O)c2cccnc2SC)cc1OCC | 8.14%
CCn1c(SCc2ccccc2)nnc1-c1ccc(S(=O)(=O)N2CCCCC2)cc1 | -3.74%
CC(C)C(=O)N(Cc1cc2ccccc2[nH]c1=O)C(C)(C)C | 7.5%
Cc1sc(NC(=O)CN2CCN(c3ccccn3)CC2)c(C#N)c1C | 13.4%
CCOc1ccc(NCC(=O)Nc2ccc(Cl)cc2C)cc1 | 5.84%
Cc1ccc(-c2csc(NC(=O)CSC3=NCCS3)n2)cc1 | 16.6%
O=c1cc(-c2ccccc2)nc2cc(-c3ccc(F)cc3)[nH]n12 | 14.9%
COc1ccc(C=O)cc1CN1C(=O)c2ccccc2C1=O | 11.3%
O=S(=O)(Nc1ccncc1)c1ccc(Cl)cc1 | -3.34%
COc1ccc(N2CCN(S(=O)(=O)c3ccc(C(=O)NC4CCCC4)cc3)CC2)cc1 | -3.56%
